According to PubChem BioAssay AID686971 (National Center for Advancing Translational Sciences (NCATS), 2013):
The whole screen tested about 360,000 compounds, of which about 7,500 (2.1%) were called active. This list was built around the results that the source calls inconclusive (neither active nor inactive); the mix of calls is not that of the screen. The call rests on the fitted dose curve; in most records, active means well fitted cell-killing curve with a large enough effect; inconclusive means small, poorly fitted or top-dose-only effect, or effect the other way, or another doubt; inactive means no such curve, though single readings can be large or run the other way. Potencies of inconclusive entries are left out as doubtful fits.
Potency means the concentration at half of the fitted maximal effect; tags describe the fitted curve by direction and shape.

Assay: qHTS for induction of synthetic lethality in tumor cells producing 2HG: qHTS for the HT-1080-IDH1KD cell line;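 on activity, negative = toxicity: 0% = DMSO wells and -100% = cell-free medium wells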
Conditions: HT-1080 IDH1 knockdown viability, ATP luminescence, 48 h; activity, negative = toxicity: at 46.1 µM (top of the series) unless noted
Outline: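 After a 2 h attachment period, IDH1KD HT-1080 cells took pin-transferred compound for 48 h at 37 °C; ATP-based luminescence after 10 min room-temperature reagent incubation reported viability.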
For `NNC(=O)/C(=C/c1cccs1)NC(=O)c1ccccc1Cl`, the Potency was inconclusive [cytotoxic, single point]. In the case of `CC1CCc2cc(F)cc3c(O)c(C(=O)NCC4CCCO4)c(=O)n1c23` (stereo not drawn), the Potency is reported as inconclusive [cytotoxic, single point]. For `CCN(CC)S(=O)(=O)c1ccc(NC(=S)Nc2ccc(F)cc2)cc1`, the “activity, negative = toxicity” value was inactive: 0%. With `Cc1[nH]c(C)c(S(=O)(=O)N2CCN(c3ccccc3F)CC2)c1C(=O)N1CCCC1` the “activity, negative = toxicity” value was inactive: -2.4%. For `CCc1ccc(/C=N/NC(=O)c2cc(-c3ccncc3)nc3ccccc23)s1`, the Potency was inconclusive [cytotoxic, partial curve]. For `COc1cccc(NS(=O)(=O)c2ccc3c(c2)CCN3C(C)=O)c1`, the “activity, negative = toxicity” value was inactive: -16.7%. For `CCOc1ccccc1-n1c(COc2ccc(C)cc2)nnc1SCC(N)=O`, the Potency was inconclusive [cytotoxic, single point]. For `CC(=O)/C(N=Nc1cc2c(cc1[N+](=O)[O-])OCCO2)=C(\C)O`, the “activity, negative = toxicity” value was inactive: -14.6%. In the case of `CC(C)N(C)Cc1cn(C)nc1-c1ccc(Oc2ccccc2)cc1`, the Potency is reported as inconclusive [cytotoxic, single point]. With `O=C(CCl)N(Cc1cccc([N+](=O)[O-])c1)c1cccc(Cl)c1` the Potency was active: 4.61 µM. With `O=C(CCNC(=O)Cn1ccc2ccccc2c1=O)NCCN1CCc2ccccc2C1` the Potency was inconclusive [cytotoxic, single point]. With `CC(=O)c1cccc(NC(=O)Nc2cnn(Cc3ccc(Cl)cc3Cl)c2)c1` the Potency was active: 14.1 µM. For `O=C(CSc1nnc(NC(=O)C2CC(=O)N(c3ccccc3)C2)s1)NCc1ccco1` (stereo not drawn), the “activity, negative = toxicity” value was inactive: 4.77%. With `O=C(Nc1nnc(-c2ccc3c(c2)CCCC3)o1)c1ccccc1Cl` the Potency was inconclusive [cytotoxic, partial curve]. For `CCCc1c(C)[nH]c2ccc(C(=O)O)cc2c1=S`, the Potency was inconclusive [rising, single point]. For `O=C(N/N=C/c1ccccc1O)C(=O)N1CCCCCC1`, the Potency was active: 8.2 µM. With `CC(C)c1ccc(NC(=O)Nc2nc(C(N)COCc3ccccc3)cs2)cc1` (stereo not drawn) the Potency was inconclusive [cytotoxic, partial curve]. In the case of `Nc1nc2nc(-c3ccc(F)cc3)cc(C(F)(F)F)n2n1`, the Potency is reported as inconclusive [rising, partial curve]. For `CCC(=O)N/C(N)=N/c1nc(C)c2cc(OC)ccc2n1`, the Potency was inconclusive [cytotoxic, single point]. For `O=C(c1ccc(Cl)c(Cl)c1)N1CCC(=O)N([C@H](COCc2ccc(Cl)cc2)Cc2ccccc2)CC1`, the Potency was active: 25.9 µM. For `NNc1nc(-c2ccccc2)c2cc(Br)ccc2n1`, the Potency was inconclusive [cytotoxic, partial curve]. With `COc1ccc(N(CC(O)Cn2c3ccccc3c3ccccc32)S(=O)(=O)c2ccccc2)cc1` (stereo not drawn) the activity, negative = toxicity was inconclusive: -34% [cytotoxic]. With `NC(=O)c1cccc(-c2coc3c(C(=O)NCc4ccccc4)cccc23)c1` the Potency was inconclusive [cytotoxic, partial curve]. In the case of `N#CCSc1nc(Nc2ccc3c(c2)OCO3)c2ccccc2n1`, the “activity, negative = toxicity” value is reported as inactive: -21.9%. In the case of `O=C(CN(C(=O)CNS(=O)(=O)c1ccc(F)cc1)C1CCCC1)NCc1ccco1`, the “activity, negative = toxicity” value is reported as inactive: 2.54%. For `CCC(C)(C)n1nnnc1C(c1cc2cc(C)cc(C)c2[nH]c1=O)N1CCCC1` (stereo not drawn), the “activity, negative = toxicity” value was inactive: -17.2%. For `COc1ccc2ccc(OC)c(/C=N/NC(=O)c3cc4ccccc4o3)c2c1`, the Potency was inconclusive [cytotoxic, single point]. For `O=C(Nc1ccc(Cl)cc1)N[C@@H]1c2c(ccc3ccccc23)OC[C@@H]1CO`, the Potency was inconclusive [cytotoxic, single point]. In the case of `O=C(COC(=O)c1ccc(O)cc1O)Nc1cc(-c2ccccc2)nn1-c1ccccc1`, the Potency is reported as inconclusive [cytotoxic, single point]. In the case of `CN(CC(=O)Nc1ccc(F)cc1)C(=O)c1cccc(S(=O)(=O)N2CCN(c3ccc(F)cc3)CC2)c1`, the Potency is reported as inconclusive [cytotoxic, partial curve]. For `O=C(NN=Cc1c(O)ccc2ccccc12)c1ccc2c(c1)OCO2`, the Potency was active: 5.17 µM. With `COc1ccc(-n2cc(CNCCCn3ccnc3)c(-c3cccc(F)c3)n2)cc1` the Potency was inconclusive [cytotoxic, single point]. In the case of `COc1ccc(C(CNC(=O)C(=O)NC2CCCC2)N2CCN(C)CC2)cc1` (stereo not drawn), the “activity, negative = toxicity” value is reported as inactive: 12.9%. For `CCOc1ccc(CCNC(=O)Nc2cccc(OC)c2)cc1OCC`, the “activity, negative = toxicity” value was inactive: 1.8%. For `Cc1c(C(=O)OCC(C)C)[nH]c2c1C(=O)CC(c1ccco1)C2` (stereo not drawn), the Potency was active: 1.16 µM. With `CCCNC(=O)c1c(NC(=O)C2COc3ccccc3O2)sc2c1CCCC2` (stereo not drawn) the “activity, negative = toxicity” value was inactive: 8.69%. In the case of `CCOc1cccc(/C=N/NC(=S)Nc2ccccc2[N+](=O)[O-])c1O`, the Potency is reported as active: 16.4 µM. In the case of `COC(=O)c1ccc(COc2cccc3c2CCN(Cc2ccccc2)C3=O)o1`, the “activity, negative = toxicity” value is reported as inactive: -15.4%. For `CSc1ccc(/C=N/n2c(C3CCCCC3)n[nH]c2=S)cc1`, the Potency was inconclusive [cytotoxic, single point]. For `Cc1nn(-c2ccc(C(F)(F)F)cn2)c(C)c1Oc1ccccc1O`, the Potency was inconclusive [cytotoxic, single point]. In the case of `C=CCNc1nc(NCc2cccc(OC)c2)c2sc(-c3ccccc3)cc2n1`, the Potency is reported as inconclusive [cytotoxic, single point]. In the case of `O=C(NCCCl)Nc1ccc(Cl)c([N+](=O)[O-])c1`, the “activity, negative = toxicity” value is reported as inactive: 0%. In the case of `O=S(=O)(c1ccccc1)c1ncc(C(F)(F)F)cc1Cl`, the Potency is reported as active: 16.4 µM. For `O=S(=O)(c1ccc(Br)cc1)c1nc(-c2ccco2)oc1NCCCn1ccnc1`, the Potency was inconclusive [cytotoxic, partial curve]. With `O=C(NN(c1ccccc1)c1ccccc1)c1ccc([N+](=O)[O-])o1` the Potency was inconclusive [cytotoxic, single point]. In the case of `COc1ccc(N2CCN(c3nc(NCCc4ccc(OC)c(OC)c4)nc(OC)n3)CC2)cc1`, the Potency is reported as inconclusive [cytotoxic, single point]. In the case of `COc1ccc(C2CC(c3ccccc3)=NN2c2ccc(Cl)c(C(=O)O)c2)cc1` (stereo not drawn), the “activity, negative = toxicity” value is reported as inactive: -23.7%. For `CCOc1ccc(-n2c(-c3ccccc3)nnc2-c2ccccc2)cc1`, the Potency was inconclusive [cytotoxic, single point]. In the case of `COc1ccc(N(C(=O)c2ccco2)S(=O)(=O)c2cc(Cl)c(Cl)cc2Cl)cc1`, the Potency is reported as inconclusive [cytotoxic, single point]. With `N#C/C(=C\c1ccc(O)c(O)c1)C(=O)c1ccc(O)c(O)c1` the Potency was inconclusive [cytotoxic, single point]. With `Cc1ccc(/C(N)=N/OC(=O)c2cccs2)cc1` the “activity, negative = toxicity” value was inactive: -9.2%. With `O=c1c2cn[nH]c2nc(SCc2cc(=O)n3cc(Br)ccc3n2)n1-c1ccc(Br)cc1` the Potency was inconclusive [cytotoxic, single point]. With `CC(C)Cn1c(N)c(C(=O)CSc2ncn[nH]2)c(=O)n(C)c1=O` the “activity, negative = toxicity” value was inactive: 10.4%. With `Cc1cc(NC(=O)CSc2nc(-c3ccco3)cc(C(F)(F)F)n2)no1` the Potency was active: 0.517 µM. With `COc1ccc(S(=O)(=O)NCc2ccccn2)cc1NC(=O)c1ccccc1F` the Potency was active: 5.8 µM. In the case of `CCOc1ccccc1C(=O)Nc1ccc2nc(N3CCN(c4ncccn4)CC3)cc(C)c2c1`, the Potency is reported as inconclusive [cytotoxic, single point]. With `Cc1ccc(NC(=O)Cn2cnc3cc([N+](=O)[O-])ccc3c2=O)cc1` the “activity, negative = toxicity” value was inactive: 1.1%. In the case of `COc1ccccc1Cc1c(-c2cccc(Br)c2)nc2c(C)cc(Br)cn12`, the Potency is reported as inconclusive [cytotoxic, single point]. For `Cc1cc(Nc2n[nH]c(N)c2C#N)ccc1F`, the “activity, negative = toxicity” value was inactive: 6.8%. For `CCOc1cc(/C=N\NC(=O)c2ccc(NC(=O)C(C)(C)C)cc2)ccc1OC(=O)c1cccc(C)c1`, the Potency was inconclusive [cytotoxic, partial curve]. For `COc1cc(C=CC(=O)c2cc(OC)c(OC)c(OC)c2)cc(OC)c1OC`, the Potency was active: 23.1 µM. In the case of `COc1ccc(CN2CCC(CO)(CCOc3ccccc3)CC2)c(OC)c1C`, the Potency is reported as inconclusive [cytotoxic, partial curve]. For `COCCCn1c(SCC(=O)NC2CCCCC2)nnc1-c1ccco1`, the “activity, negative = toxicity” value was inactive: 14.3%. In the case of `Cc1ccc2nc(NC(=O)CSc3nc(=O)n(CCCN(C)C)c4c3CCC4)sc2c1`, the Potency is reported as inconclusive [cytotoxic, single point]. In the case of `O=C(C[n+]1ccc(C(=O)c2ccccc2)cc1)Nc1ccc(C(F)(F)F)cc1`, the Potency is reported as inconclusive [cytotoxic, single point]. For `COc1ccc(CCNC(=O)/C=C/c2ccc3ccccc3n2)cc1OC`, the Potency was active: 23.1 µM. For `CCOc1ccc(-c2cc(C(=O)N/N=C/c3cccnc3)c3ccccc3n2)cc1`, the Potency was inconclusive [cytotoxic, partial curve]. With `CC(C)NC1CCC(Nc2ccnc3cc(Cl)ccc23)CC1` (stereo not drawn) the Potency was inconclusive [cytotoxic, partial curve]. With `Cc1ccccc1NC1=C/C(=N\S(=O)(=O)c2ccc(C(=O)O)cc2)c2ccccc2C1=O` the Potency was active: 23.1 µM. In the case of `O=C(/C=C/c1ccccc1)CCN1CCOCC1`, the Potency is reported as active: 18.4 µM. For `O=C(Nc1ccc(N2CCCC2)cc1)c1cc(Br)ccc1Cl`, the Potency was inconclusive [cytotoxic, full curve]. For `N#Cc1c2c(c(Nc3ccc(O)cc3)n3c1nc1ccccc13)CCC2`, the Potency was inconclusive [cytotoxic, single point]. With `Cc1ccccc1NC(=O)CCC(=O)N/N=C/c1cc([N+](=O)[O-])ccc1O` the Potency was inconclusive [cytotoxic, single point].
